Values joined by “and” are separate entries in the source; they are usually repeats but may differ in a detail not shown here. Equal entries are not always repeated. Out of some 410,000 compounds screened, about 7,200 (1.8%) were called active. Inconclusive means that the source gave no clear call. Such entries were picked first, then a sample of the others. Calls follow the shape of the dose curve; as a rule, active = well fitted activation curve with a large enough effect; inconclusive = small, poorly fitted or top-dose-only effect, or another doubt; inactive = no such curve, though single readings can be large or run the other way. Potencies beside an inconclusive call are fits to weak or partial responses and may not hold up. A structure can be active in one record and inactive in another.
experiment: qHTS of TDP-43 Inhibitors; conditions: TDP-43 expressing yeast growth rescue, BacTiter-Glo, 24 h; growth rescue (activation): at 46.1 µM (top of the series) unless noted; also: nearly all actives have a fitted effect of over 50% in size; as to growth rescue (activation): % of control where 0% means no effect
Procedure, shortened: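 Growth rescue of TDP-43-toxic yeast measured as ATP luminescence (BacTiter-Glo). Cells grown to mid-log in raffinose, induced in galactose at OD600=0.02, exposed to compound 24 hr at 30 deg C.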
Potency is read from the fitted curve at half-maximal effect; tags tell the direction and shape of the fitted curve.

Potency, inactive and 22.4 µM (active):
O=C(CCCn1c(=O)c2cccn2c2cccnc21)NCCc1ccc(Cl)cc1

Potency, active:
Cc1[nH]c(-c2ccc(F)cc2)cc1C(=O)N1CCN(c2ccccc2)CC1 17.8 µM
COc1ccc(NC(=O)C(C2CC2)n2c(=O)c(-c3ccccc3)nc3ccccc32)cc1 (centres undefined) 20 µM
Cc1nc(CS(=O)(=O)c2ccccc2)cc(Sc2ccccc2Cl)n1 31.6 µM
O=C(COc1ccc(Br)cc1Cl)c1ccc[nH]1 20 µM
C#CCOC(=O)Nc1cccn(Cc2c(Cl)cccc2Cl)c1=O 11.2 µM
Cc1ccc(C(=O)NC2CCCc3ccccc32)cc1[N+](=O)[O-] (centres undefined) 10 µM
CCCc1cc(N2CCN(c3ccccc3)CC2)n2cnnc2n1 20 µM
c1coc(CNc2ncnc3sc4c(c23)CCCCC4)c1 12.6 µM
Cc1ccccc1CNc1nc(N(C)C)nc2c1cnn2C 20 µM
C=CCNC(=O)c1ccc(CSc2nc3ccccc3s2)cc1 17.8 µM
COc1ccc(N2CCN(C(=O)CSc3c4c(nc5ccc(Cl)cc35)CCCC4)CC2)cc1 31.6 µM

Potency, inconclusive:
O=C(NCCc1csc(-c2cccnc2)n1)c1cccc(C(F)(F)F)c1 14.1 µM [activator, single point]
O=C(O)c1ccc(N2C(=O)CC(N3CCC(c4nc5ccccc5[nH]4)CC3)C2=O)cc1 (centres undefined) 35.5 µM [activator, single point]
COc1ccc(-c2c(-c3ccc4c(c3)OCO4)noc2C)cn1 31.6 µM [activator, single point]
CCOC(=O)c1cc(-c2ccccc2)n(CCC(=O)N2CCN(c3ccc(OC)cc3)CC2)c1C 20 µM [activator, single point]
Cc1ccc2nc(NC(=O)c3cc(=O)c4cc(C)c(C)cc4o3)sc2c1 35.5 µM [activator, partial curve, poor fit]
O=C(NC1CCCc2ccccc21)c1ccccc1Cl (centres undefined) 15.8 µM [activator, partial curve]
COc1ccc(S(=O)(=O)N2CCCCCC2)cc1C(=O)Nc1cc(C)ccn1 10 µM [activator, partial curve]
Cc1cccc(NC(=O)COc2ccc3c(c2)CCC3)n1 11.2 µM [activator, partial curve]
CCCN1C(=O)C(NC(=O)c2ccccc2OC)(C(F)(F)F)C(C(=O)OC)=C1C (centres undefined) 6.31 µM [activator, partial curve]
CC(C)Oc1ccc(C(=O)Nc2ccccc2N2CCCC2)cc1 17.8 µM [activator, single point]
COc1ccccc1N1CCN(CCCCN2C(=O)C3CCCCN3C2=O)CC1 (centres undefined) 11.2 µM [activator, partial curve]
COc1ccc(S(=O)(=O)NC(=O)C2(C)CCN2C(=O)CC2CCCC2)cc1 (centres undefined) 0.562 µM [activator, full curve, poor fit]
NC(=O)COC(=O)CCCSc1nc2ccccc2s1 25.1 µM [activator, partial curve]
O=C(c1ccccc1)c1ccc(OCC(=O)N2CCOCC2)cc1 0.316 µM [activator, full curve, poor fit]
CC(=O)NC(c1ccccc1)c1nc(-c2cccc(CO)c2)cs1 (centres undefined) 15.8 µM [activator, partial curve]
CC1CCCCN1c1nc2nonc2nc1N1CCCCC1C (centres undefined) 35.5 µM [activator, single point]
N/C(=N/OC(=O)c1ccccc1F)c1nonc1N 0.891 µM [activator, full curve]
COC(=O)c1scc(C)c1NC(=O)CSc1ccc(Cl)cc1 11.2 µM [activator, single point]
O=C(C(=O)N1CCN(c2ccccc2)CC1)c1ccc2c(c1)OCO2 0.501 µM [activator, partial curve, poor fit]
Cc1ccc(C)c(/C=N/NC(=S)NC(C)C)c1 14.1 µM [activator, partial curve]
CCCCCn1cnnc1SCC(=O)c1ccc2c(c1)OCO2 22.4 µM [activator, single point]
Cc1ccccc1C(=O)OC(C)C(=O)NCc1ccc2c(c1)OCO2 (centres undefined) 22.4 µM [activator, partial curve, poor fit]
Cc1ccc2nc(Nc3ccc(F)cc3)c3nncn3c2c1 1.58 µM [activator, full curve]
Cc1onc(-c2ccccc2Cl)c1C(=O)Nc1ccccc1N1CCOCC1 35.5 µM [activator, partial curve]
CNc1nc(-c2ccc3c(c2)CCN3C(=O)c2ccccc2F)cs1 35.5 µM [activator, single point]
O=C(Nc1cccc(C(F)(F)F)c1)Oc1ccc(Cl)c2cccnc12 7.08 µM [activator, full curve]
CCOC(=O)C1CCN(C(=O)c2sc3nc(-c4ccccc4)cn3c2C)CC1 7.94 µM [activator, single point]
Oc1ccc(N=Nc2nc(-c3ccccc3)c(-c3ccccc3)[nH]2)cc1 12.6 µM [activator, single point]
COc1ccc(NC(=O)C(c2ccc(C(F)(F)F)cc2)n2c(=O)c(-c3cc4ccccc4[nH]3)nc3ccccc32)cc1 (centres undefined) 35.5 µM [activator, partial curve, poor fit]
COc1cc(OC)cc(C(=O)N2c3ccc(F)cc3CCC2C)c1 (centres undefined) 35.5 µM [activator, single point]
CCc1ccc(CN(C)C(=O)c2cc(COc3cccc(C(F)(F)F)c3)on2)nc1 25.1 µM [activator, single point]
CCOC(=O)N1CCN(C(=O)c2cc3c(s2)-c2ccccc2OC3)CC1 12.6 µM [activator, single point]
O=C(O)CCCC(=O)OCCCCc1cccs1 17.8 µM [activator, partial curve]
CCOc1ccc(Br)cc1S(=O)(=O)Nc1ccc(C(=O)Nc2ccccc2OC)cc1 4.47 µM [activator, single point]
COCCNc1oc(-c2ccccc2Cl)nc1C#N 28.2 µM [activator, partial curve]
O=C(NCc1ccccc1)c1cccc(COc2cccc(Cl)c2)c1 12.6 µM [activator, single point]
CN(c1ccccc1)C(c1ccc(F)cc1)c1nnnn1C1CCCC1 (centres undefined) 17.8 µM [activator, single point]
CC(=O)n1nc(-c2ccco2)nc1SCc1ccccc1 12.6 µM [activator, partial curve]

Growth rescue (activation), inconclusive:
CC(C)(C)NC(=O)c1ccc(COc2ccc(Cl)cc2Cl)o1 31.1% [activator]
O=[N+]([O-])c1ccc(Sc2nc3ccccc3o2)c([N+](=O)[O-])c1 -63.8% [activator]

Growth rescue (activation), inactive:
COc1ccccc1CNC(=O)c1ccc(C)c(-n2cnc3cccnc32)c1 13.1%
COc1ccc(NC(=O)C2CCCN(c3ncccn3)C2)cc1 (centres undefined) 5.93%
COc1ccc(-n2ccnc(NCCc3ccc(S(N)(=O)=O)cc3)c2=O)cc1 20.8%
COc1cc(/C=C/c2nc(C#N)c(NC3CCCCC3)o2)cc(OC)c1OC 11.7%
COc1ccccc1NC(=O)CSc1nc2c(oc3ccccc32)c(=O)n1-c1ccc(C)cc1 -2.95%
COc1ccc(-c2nn(C)c3sc(C(=O)N4CCN(c5cccc(C)c5C)CC4)cc23)cc1OC 17.1%
CC(=O)c1sc2c(c1C)c(=O)n(-c1ccc(Cl)cc1)c(=O)n2Cc1ccc(Cl)cc1 16.8%
O=C(NCC(c1cccs1)S(=O)(=O)c1cccs1)c1ccccc1 (centres undefined) -11.8%
COc1ccccc1CCC(=O)Nc1cccc(S(=O)(=O)N2CCCC2)c1 -0.811%
COc1cccc(NC(=O)c2cc([N+](=O)[O-])ccc2NCc2cccnc2)c1 11.1%
COc1ccc(Nc2nc(N3CCOCC3)nc(N3CCOCC3)n2)cc1 -2.29%
CC(=O)N1CCCc2cc(S(=O)(=O)N3CCC(C(=O)NCCC(C)C)CC3)ccc21 6.33%
O=C(O)c1cc(N2C(=O)CCC2=O)ccc1Cl 17.2%
COc1cc(OC)c(C2=NOC(C(=O)NCCc3ccccc3)C2)cc1Cl (centres undefined) 6.24%
CCN(CCn1cccn1)C(=O)C1CCC(=O)N(CCN2CCOCC2)C1 (centres undefined) -0.565%
CCCCn1nnnc1C(c1ccccc1)N1CCN(c2ccccc2)CC1 (centres undefined) 5.18%
O=C(NCC1CCCO1)c1cc2ccccc2[nH]1 (centres undefined) 13%
Cn1c(CSc2nc3ccccc3s2)nnc1SCC(=O)NCCCN1CCOCC1 -5.61%
CCc1cccc(CC)c1NC(=O)Cn1c(=O)c(-c2cc(C)ccc2NC(C)=O)nc2ccccc21 11.5%
O=C(Nc1ccc2ccccc2c1)C(C1CC1)n1c(=O)c(-c2cc3ccccc3[nH]2)nc2ccccc21 (centres undefined) 0%
O=C(Nc1cccc(O)c1)c1cc2nc(-c3ccc(Br)cc3)cc(C(F)(F)F)n2n1 10.1%
CCn1c2c(c3cc(OCC(C)C)ccc31)CCCC2=O 3.43%

Reference: PubChem BioAssay AID652104 (National Center for Advancing Translational Sciences (NCATS), 2013)
